Measurements reported in ChEMBL document CHEMBL4888484, “Replenishing the malaria drug discovery pipeline: Screening and hit evaluation of the MMV Hit Generation Library 1 (HGL1) against asexual blood stage Plasmodium falciparum ,using a nano luciferase reporter read-out” (2022).
Screen size: about 150,000 compounds; about 540 (0.36%) showed an effect of 50% or more. The list shows a part of the results.

The compounds below were run on Plasmodium falciparum (assay: Primary screen in NF54 nanoGlo assay, in single point, at 2uM, 72h; a lower Z score goes with more inhibition). Conditions: timepoint 72 hour.
Type: functional, Erythrocyte

Row | SMILES | % Inhibition [%] | Z score
1 | CC(C)N(C1CC1)S(=O)(=O)c1ccc2c(c1)OCCCO2 | -2 | 0.25
2 | COc1ccc(N2CCN(CN3CC(=O)N(C(C)C)C3=O)CC2)cc1 | 2 | -0.3
3 | CCN(CC)C(=O)c1cnn(-c2nccc(-c3cc(C)sc3C)n2)c1C | -19 | 2.55
4 | O=C(Nc1ccc2oc(-c3cccc(Cl)c3Cl)nc2c1)c1cccc2ccccc12 | 0 | 0.05
5 | Cc1nnc(NC(=O)c2ccccc2-c2ccccc2)s1 | 2 | -0.28
6 | COc1cccc(Cn2nnc3cc(C(=O)Nc4ccc(OC)c(Cl)c4)ccc32)c1 | -15 | 1.56
7 | Cc1c(Cl)cccc1NC(=O)Cn1nc2c(N3CCCC3)nc3ccccc3n2c1=O | -10 | 1.46
8 | Cn1cc([C@H](CC(N)=O)c2c(Cc3cc(F)c(F)cc3F)[nH][nH]c2=O)cn1 | -1 | 0.19
9 | O=C(NC(c1ccccc1)[C@H]1C[C@@H](O)C1)c1ccc(Cn2ccnc2)o1 (stereo partly specified) | -11 | 1.86
10 | CC[C@H](C)CCNC(=O)N(C)Cc1ccc2ccccc2n1 | -7 | 1.3
11 | Clc1cccc(CNc2nc(-c3ccccc3)no2)c1 | -16 | 1.39
12 | FC1(F)CN[C@H](c2nc(-c3ccccc3)no2)C1 | 8 | -1.4
13 | Cc1ncccc1-n1cccc1C(=O)NCc1ccc(Cl)cc1 | 2 | -0.21
14 | CC(C)[C@@H]1CN(C(=O)c2ncccc2O)CCCN1CC1CC1 | -10 | 1.44
15 | COc1cccc(C(=O)NCc2ccc(-c3nc(C4CC4)no3)s2)c1 | 2 | -0.29
16 | Cc1cnc(CC[C@H]2CCCN2C(=O)CCn2ccnc2)n1C | 34 | -4.61
17 | O=C1COc2ccc(C(=O)Cn3nc4cnccn4c3=O)cc2N1 | 10 | -1.19
18 | COc1ccccc1N1CCN(CC2(CC(=O)O)CC2)CC1 | -11 | 1.33
19 | CCn1c(C(=O)N2CCN(c3ccccn3)CC2)cc2c(-c3cccs3)nn(-c3ccccc3)c21 | -7 | 1.14
20 | CCc1noc(CCNC(=O)c2ccc(-c3c(C)ncnc3OC)cc2)n1 | -17 | 2.11
21 | COCCC1(c2noc(C3CCOCC3)n2)CCN(Cc2c(C)nn(C)c2C)CC1 | -16 | 2.12

Row | SMILES | % Inhibition [%] | Z score
22 | CCOC(=O)NC(=O)COC(=O)C[C@H](C)c1ccccc1 | -5 | 0.8
23 | Cc1ccc(-c2cc(NC(=O)c3ccccc3)c(=O)n(CC(=O)Nc3cc(C)ccc3C)n2)cc1 | -7 | 1.07
24 | CCOC(=O)C(=O)NCc1ccc(F)cc1 | -7 | 0.78
25 | CC(C)C(=O)N[C@@](C)(Cn1cccn1)C(N)=O | 1 | -0.08
26 | Cn1nccc1C=Cc1ncc(Br)s1 | -8 | 1.04
27 | COc1cc(C(=O)N2CCNC(=O)C[C@H]2c2ccccc2)ccc1C | -16 | 2.03
28 | Cc1ccc(C)c(NC(=O)NCc2cc3n(n2)CCN(S(C)(=O)=O)C3)c1 | -10 | 1.36
29 | Cn1c(=O)ccn(CC(=O)NCC2(c3ccc(Cl)cc3)CCCC2)c1=O | -13 | 1.78
30 | CCOC(=O)CN1C(=O)N(c2ccc(OC)cc2)c2ncccc2S1(=O)=O | -22 | 2.2
31 | COc1ccc2cc1OCC(=O)N[C@@H](C)C(=O)N(C)CCCCN(C(=O)c1ccc3cccc(F)c3n1)CCCNC(=O)CC2 | -2 | 0.3
32 | CCN1C[C@H](CN(C)CC(=O)NC2CCCC2)Oc2ccccc21 | -13 | 1.09
33 | Cc1ccc(C)c(CC(=O)N2CCC([C@H](C)N3CCN(C)CC3)CC2)c1 | -5 | 0.61
34 | CC1CS(=O)(=O)CCN1CC(=O)N1C(C)CCCC1C (stereo unspecified) | -5 | 0.77
35 | CCO[C@@H](CC)C(=O)Nc1ncccc1Br | -13 | 1.5
36 | O=C(c1cscc1-c1ccccc1)N1CCCO[C@@H](CF)C1 | -6 | 0.76
37 | COc1ccc([C@@H]2CCCN2C(=O)Nc2nncs2)cc1OC | 1 | -0.13
38 | O=C(N[C@@H]1CCCNC1)c1cc(-c2ccco2)nc2c(Cl)cccc12 | 2 | -0.24
39 | Cc1cccc(NS(=O)(=O)c2ccc3c(c2)CC(C)(C)OC3)c1C | -7 | 0.78
40 | CCC=C(C)C(=O)NCCc1ccc(OC)cc1 | 10 | -1.39
41 | CC1(c2ccccc2)CCC(N2CCN3C(=O)C(=O)NCC3C2)C1 (stereo unspecified) | -12 | 2.29
42 | COc1c2ccc(C(=O)N3CCC(COc4cc(C)ncn4)CC3)cc2nn1C | -13 | 2.29

Row | SMILES | % Inhibition [%] | Z score
43 | CCOc1cc2cc(c1)C(=O)N(C)CC(=O)N[C@@H]1CN(C(=O)c3cccnc3)CC[C@@H]1OCc1cccc(c1)O2 | -11 | 2.21
44 | CC(=O)c1c[nH]c(C(=O)Nc2ccc3c(c2)NC(=O)[C@H](C)O3)c1 | -14 | 2.03
45 | CCCS(=O)(=O)N1CC(n2cc(C(=O)NCc3ccccc3)nn2)C1 | -3 | 0.59
46 | Cc1nc(C2(NC(=O)N3CCS(=O)(=O)CC3)CCCCCC2)no1 | 12 | -2.19
47 | Cc1cc(C(=O)N2CCC(F)(F)[C@@H](COCC3CC3)C2)[nH]n1 | -1 | 0.22
48 | Cc1ccc(Cn2cccc2C(=O)C(=O)Nc2cccc3ccccc23)cc1 | -4 | 0.34
49 | Cn1cccc1CN[C@H](c1ccccc1)C1(CO)CCC1 | 8 | -1.38
50 | COCCN1C[C@]2(CCCN(c3ccnc4ccc(C)cc34)C2)CCC1=O | -3 | 0.55
51 | CN(C1CCCCC1)S(=O)(=O)N1CCC[C@H](C(C)(C)C)CC1 | -12 | 1.6
52 | O=S(=O)(c1ccccc1)c1cnc2c(Br)c(-c3ccccc3)nn2c1-c1ccccc1 | 44 | -5.72
53 | Cc1ccc(C(=O)NC2CCN(CN3C[C@@H](c4ccccn4)CC3=O)CC2)o1 | -7 | 0.72
54 | Cc1cnn(C2CN(CC(=O)N3CCN(c4ncccn4)CC3)C2)c1 | 2 | -0.35
55 | C[C@@H](c1ccccc1)N(CC(=O)N1CCN(c2ccc(-c3ccc(Cl)cc3Cl)nn2)CC1)C(=O)c1cccc(F)c1 | 3 | -0.28
56 | Cc1ccccc1CC(=O)Nc1ccc2oc(C3CC3)nc2c1 | -2 | 0.17
57 | CC(=O)Nc1ccc(CNC(C)(C)c2ncc(C)s2)cc1 | -10 | 1.37
58 | C#CC[C@H](C)OC(=O)c1cnn(CC)c1 | -16 | 1.72
59 | CC1CCN(c2cc(-c3ccco3)c3c(c2C#N)CC(C)(C)OC3)CC1 | 5 | -0.81
60 | CC1CCN(CC(=O)Nc2sc3c(c2C#N)CCC3)CC1 | -3 | 0.56
61 | CC1(C)CCCN(C(=O)NCCCN2CCOCC2)CC1 | -9 | 1.17
62 | COc1ccccc1NC(=O)N1CCC[C@]2(C3=CCOCC3)COCC[C@@H]12 | 2 | -0.3
63 | Cc1[nH]ccc1C(=O)N1CC[C@@]2(CCCN(CC3CCC3)C2=O)C1 | -14 | 2.68

Row | SMILES | % Inhibition [%] | Z score
64 | O=C(Cn1cnc(C2CC2)cc1=O)N1CC[C@@H](c2ccccc2Cl)S(=O)(=O)CC1 | -8 | 1.32
65 | NC(=O)CN1CCOc2ccc(F)cc2C1 | 8 | -1.52
66 | CN1C(=O)c2cc3ccccc3n2C[C@@]1(C)C(=O)NCC(=O)N1CCCCC1 | -11 | 1.13
67 | COC(=O)c1cc(OCC(=O)Nc2ccc(C)c(F)c2)c2cc(C)ccc2n1 | -6 | 0.97
68 | O=C1[C@H]2CN(Cc3ccc(Cl)cc3)C[C@H]2C(=O)N1Cc1ccc2c(c1)OCO2 | -12 | 1.52
69 | c1csc([C@@H]2CN(c3ncnc4sccc34)CCO2)n1 | 5 | -0.74
70 | Cc1ncsc1CN1CCC[C@@](F)(C(=O)NCC2CC2)C1 | -28 | 2.51
71 | O=C(NC(c1ccccc1)c1ccccc1)c1cccc2ccccc12 | -10 | 1.21
72 | Cc1cc(-c2cc(S(=O)(=O)N3CC(N4CCCCC4)C3)c(C)s2)[nH]n1 | -1 | 0.17
73 | CN1CCO[C@@H](CCNS(=O)(=O)N2CCc3ccccc3C2)C1 | -9 | 1.43
74 | CC(=O)N1CCC2(CC1)C[C@@H](C(=O)O)N(C(=O)c1ccc(C)c3ccccc13)C2 | -18 | 2.05
75 | COCCN(Cc1ccsc1)Cc1cc2cc(C)ccc2n1C | -17 | 1.78
76 | Cc1nc2ccc(NC(=O)N(C)Cc3cccc(F)c3)cc2s1 | 11 | -1.48
77 | CN(Cc1csc(-c2ccccc2)n1)C[C@]1(O)CNCCOC1 | -5 | 0.83
78 | O=C(C1CC=CCC1c1nc(Cc2cccc(F)c2)no1)N1CCOCC1 (stereo unspecified) | -3 | 0.53
79 | O=c1nc(NC2CCN(Cc3ccccc3)CC2)cn[nH]1 | 3 | -0.4
80 | CN(C)S(=O)(=O)N1CC[C@@]2(CCCN(C3CCCCC3)C2=O)C1 | -1 | 0.19
81 | c1cc(OCC2CCCCC2)cc(-n2cncn2)c1 | -6 | 1.01
82 | CCCN(Cc1c(C)nn(-c2cccc(F)c2)c1N1CCN(CC)CC1)C(=O)NC1CCCCC1 | 5 | -0.63
83 | COCCN1CC[C@H](C(=O)Nc2ccccc2Cn2ccnc2C)C1 | -20 | 3.54
